Data taken from PMC4336329 (PLoS ONE, 2015).
Screen size: about 310,000 compounds; about 2,200 (0.71%) showed an effect of 50% or more. Effects have a minus sign here. The list shows a part of the results.

Target: human ether-à-go-go-related gene (hERG) potassium channel (human, UniProt Q12809)
Assay: primary screen, population patch clamp on CHO cells stably expressing hERG

Chain of human ether-à-go-go-related gene (hERG) potassium channel (Q12809 whole entry, looked up): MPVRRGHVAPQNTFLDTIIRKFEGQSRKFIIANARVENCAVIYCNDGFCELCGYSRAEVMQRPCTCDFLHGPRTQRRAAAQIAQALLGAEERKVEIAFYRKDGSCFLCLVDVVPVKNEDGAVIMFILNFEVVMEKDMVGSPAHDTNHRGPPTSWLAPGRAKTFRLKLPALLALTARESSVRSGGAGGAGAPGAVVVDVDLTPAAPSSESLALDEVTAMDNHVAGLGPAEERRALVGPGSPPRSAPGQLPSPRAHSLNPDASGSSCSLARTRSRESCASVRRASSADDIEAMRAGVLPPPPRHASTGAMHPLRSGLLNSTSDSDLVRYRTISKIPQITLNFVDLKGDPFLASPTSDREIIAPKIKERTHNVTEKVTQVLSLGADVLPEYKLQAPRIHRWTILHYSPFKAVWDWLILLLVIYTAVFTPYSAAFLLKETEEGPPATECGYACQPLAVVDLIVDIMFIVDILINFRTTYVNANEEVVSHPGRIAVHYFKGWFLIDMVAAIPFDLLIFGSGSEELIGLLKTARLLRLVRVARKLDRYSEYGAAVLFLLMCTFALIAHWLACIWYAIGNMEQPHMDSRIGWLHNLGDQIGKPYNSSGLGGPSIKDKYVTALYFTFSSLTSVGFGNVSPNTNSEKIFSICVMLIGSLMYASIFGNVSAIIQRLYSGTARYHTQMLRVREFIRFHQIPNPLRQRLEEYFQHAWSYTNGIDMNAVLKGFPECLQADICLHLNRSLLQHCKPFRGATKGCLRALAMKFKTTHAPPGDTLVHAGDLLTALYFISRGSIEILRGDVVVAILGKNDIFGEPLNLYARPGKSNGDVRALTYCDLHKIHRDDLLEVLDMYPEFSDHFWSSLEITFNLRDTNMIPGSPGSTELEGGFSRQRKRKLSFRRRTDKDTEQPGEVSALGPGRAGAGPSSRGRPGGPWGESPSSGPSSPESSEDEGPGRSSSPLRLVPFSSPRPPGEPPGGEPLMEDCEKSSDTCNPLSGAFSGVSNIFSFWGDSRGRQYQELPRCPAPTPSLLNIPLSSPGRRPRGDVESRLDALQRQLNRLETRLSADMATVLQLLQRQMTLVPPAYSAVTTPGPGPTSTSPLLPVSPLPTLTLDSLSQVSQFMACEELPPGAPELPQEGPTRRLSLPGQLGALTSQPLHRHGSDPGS

Point of comparison: COc1cccc(C2NC(=O)NC(C)=C2C(=O)Nc2ccc(C)cc2)c1OC (centres unmarked), “hERG current change (%, negative = inhibition) at 1uM” value 6.84%. Against it:
- COC(=O)N/N=C/c1cn(Cc2ccccc2F)c2ccccc12 — higher, 11.4%
- O=C(Nc1cccnc1)C1CC(c2ccc(Cl)c(Cl)c2)=NO1 (centres unmarked) — lower, 4.65%
- Cc1cccc(N2C(=O)C3C4CC(C(Br)C4Br)C3C2=O)n1 (centres unmarked) — higher, 11.6%
- COC(=O)c1ccc(Oc2cc(C)nc(SC)n2)cc1 — higher, 10.6%
- COc1ccc(NC(=O)Cc2nnc(SCC(=O)Nc3ccccc3)n2C)cc1 — higher, 19%
- O=C(NCCSc1ccc(Br)cc1)c1ccc2nc[nH]c2c1 — higher, 7.15%
- COc1ccc(/C(C)=N/N=C(\C)c2ccc(OC)cc2OC)c(OC)c1 — lower, -2.27%
- COc1ccc2c(c1)OC[C@H]1[C@H]2N2C(=O)CN(Cc3ccc(C)cc3)C(=O)[C@@]2(C)[C@H]1c1ccccc1 — higher, 23.5%
- Cc1cc(C)c(NC(=O)COC(=O)C2CCCCC2)c(C)c1 — higher, 8.1%
- COc1ccc(Cn2nnnc2C(c2cc3cccc(C)c3[nH]c2=O)N2CCN(C)CC2)cc1 (centres unmarked) — higher, 12.7%
- CC(C)n1nc(C(=O)OCC(=O)N2CC(=O)Nc3ccccc32)c2ccccc2c1=O — lower, 3.38%
- CCN1CCN(S(=O)(=O)c2cc(OC)ccc2OC)CC1 — higher, 19%
- O=C(Nc1ccc2c(c1)OCO2)C(=O)c1c[nH]c2ccccc12 — higher, 16.4%
- CC(NC(N)=O)C12CC3CC(CC(C3)C1)C2 (centres unmarked) — higher, 15.2%
- C=Cc1c(C)c2cc3[nH]c(cc4nc(cc5nc(cc1[nH]2)C(C)=C5CCC(=O)O)C(CCC(=O)O)=C4C)c(C)c3C=C — higher, 13.8%
- COc1ccc(-n2c(SCC(=O)Nc3ccc(C(N)=O)cc3)nc3c([nH]c4ccccc43)c2=O)cc1OC — higher, 12.8%
- CC(=O)NC(=S)Nc1ccc(NC(=S)NC(=O)/C=C/c2ccco2)cc1 — higher, 11%
- O=C(c1ccccc1)c1c[nH]c(C(=O)NCCCN2CCOCC2)c1 — lower, -4.29%
- Cc1nn(-c2ccc(Cl)cc2)c(NC(=O)C(C)C)c(-c2ccccc2)c1=O — higher, 9.38%
- Cn1nc(-c2ccc(Cl)cc2)cc1NC(=O)Nc1ccccc1 — higher, 15.2%
- O=C(N/N=C/c1ccc(N2CCOCC2)cc1)c1ccccc1NS(=O)(=O)c1cccs1 — higher, 10.1%
- Cc1[nH]c(C)c2c(=O)[nH]ncc12 — higher, 13%
- Cc1ccc(C(=O)C(C(=O)/C=C/c2ccccc2)=C2SCCCS2)cc1 — higher, 8.71%
- O=S(=O)(c1ccccc1)c1nc(-c2ccc(F)cc2)oc1N1CCOCC1 — lower, -8.68%
- COc1cccc(/C=N/NC(=O)COc2cccc3cccnc23)c1O — higher, 8.24%
- O=C(Nc1ccc(-c2n[nH]c(=S)o2)cc1)c1ccccc1 — higher, 9.1%
- O=S(=O)(Nc1ccc2c(c1)OCCO2)c1ccc(Br)s1 — lower, 0.759%
- CCOC(=O)c1cc(-c2ccc(F)cc2)n(CC(=O)NCc2cccnc2)c1C — lower, -10.2%
- Brc1cccc2sc(N3CCN(c4ccccc4)CC3)nc12 — higher, 14.1%
- Cc1cccnc1Oc1ncccc1N — higher, 18.2%
- CCOC(=O)CNC(=O)CN1CCCN(S(=O)(=O)c2ccc(Br)s2)CC1 — lower, -10%
- Cc1ccccc1OCC(O)CN1CCN(CC(O)COc2ccccc2C)C(C)C1.O=C(O)C(=O)O (centres unmarked) — lower, -29%
- COc1ccc2c(c1)c(=O)oc1cc(OCC(=O)N3CCc4ccccc4C3)ccc12 — lower, 2.91%
- Cc1c(-n2c(SCC(=O)N(C)C3CCS(=O)(=O)C3)nc3ccccc3c2=O)c(=O)n(-c2ccccc2)n1C (centres unmarked) — higher, 13.7%
- Cc1c(C(=O)N/N=C/c2cccnc2)sc(N)c1C#N — higher, 13.7%
- O=C(NCc1ccco1)Nc1ccc2nsnc2c1 — lower, 3.27%
- COc1cccc(OC)c1OCCCN1CCOCC1 — higher, 10.1%
- CC(=O)Nc1ccc2nc(C3CC3)n(Cc3ccc(Cl)cc3)c(=O)c2c1 — higher, 7.75%
- COc1ccc(NC2CCCN(C(=O)CSc3ccncc3)C2)cc1 (centres unmarked) — lower, -0.247%
- COc1ccc(S(=O)(=O)NN(C)c2nc(C(F)(F)F)nc3ccccc23)cc1 — higher, 7.56%
- COCc1c(C(=O)Nc2ccc3nc(N4CCOCC4)sc3c2)oc2ccccc12 — lower, -9.89%
- CC(C)(O)P(C)(=O)c1ccccc1 (centres unmarked) — higher, 12.5%
- O=C(O)c1cccc(S(=O)(=O)N2CCSCC2)c1 — lower, 5.38%
- CCCCOC(=O)n1c(SCC(=O)N(C)C)nc2ccccc21 — lower, -11.6%
- Cc1ccc(NC2CC(=O)N(c3cccc([N+](=O)[O-])c3)C2=O)cc1 (centres unmarked) — lower, 0.207%
- CC(=O)Nc1ccc(C2Nc3cc(C)c(C)cc3NC3=C2C(=O)CC(C)(C)C3)cc1 (centres unmarked) — lower, 5.89%
- COc1ccc(S(=O)(=O)N2CCCCCC2)cc1NC(=O)CN(C)Cc1ccc2c(c1)OCO2 — lower, 3.49%
- CCn1c(=S)sc2c(=O)n(CC(=O)Nc3cccc(Cl)c3)c(C)nc21 — higher, 10.7%
- OCCN1CCN(c2cc(C(F)(F)F)nc3c(F)cccc23)CC1 — higher, 9.83%
- COc1ccccc1NC(=S)NC1CCCCC1 — higher, 11.2%
- CC(=O)c1cccc(NS(=O)(=O)N(C)C)c1 — higher, 15.9%
- N/C(Cc1cccc2ccccc12)=N\OC(=O)c1ccccc1F — higher, 10.4%
- CC(C)(C)C(=O)Nc1cccc(-c2nc3ccccc3c(=O)o2)c1 — lower, 1.39%
- CC(C)CN(C(=O)CSc1nn(-c2ccc(Cl)cc2)c(=S)s1)C1CCS(=O)(=O)C1 (centres unmarked) — lower, 3.1%
- O=C(CS(=O)(=O)Cc1ccccc1)Nc1ccc2c(c1)OCO2 — higher, 12.5%
- O=C(NCCc1ccccc1)c1cc(-c2ccccc2)c(N2CCOCC2)s1 — higher, 10.6%
- CCC(C)C(=O)Nc1cc(C(=O)OC)ccc1C(=O)OC (centres unmarked) — lower, -4.39%
- CCOC(=O)c1cnc2c(ccc3ccccc32)c1N — higher, 16.7%
- CC(=O)Cn1cnc2sc(-c3ccccc3)cc2c1=O — lower, 3.26%
- O=c1cc(-c2ccccc2)cc(-c2ccccc2)n1CCCO — lower, -2.74%
- CCOc1ccc(-n2c(=O)c3c(C)c(C(=O)N(C)C)sc3n(CC(=O)Nc3ccccc3F)c2=O)cc1 — higher, 7.7%
- O=C1CSC(c2cccc(F)c2)N1c1c(F)cccc1F (centres unmarked) — lower, 5.86%
- Cc1ccc(CN2CCN(Cc3cccn3-c3ccccn3)CC2CCO)o1 (centres unmarked) — lower, -59.5%
- CC(=O)Nc1ccc(S(=O)(=O)c2ccc(N)cc2)cc1 — higher, 7.62%
- CCOC(=O)C(CC)Sc1nnc2cc(C)c3ccccc3n12 (centres unmarked) — lower, -20.5%
- COc1ccc(C(=O)/C=C/c2ccc(OCc3ccccc3)cc2)cc1CSCC(=O)O — lower, -4.12%
- CCN(CC(=O)NC1CCS(=O)(=O)C1)S(=O)(=O)c1ccc(C)cc1C (centres unmarked) — higher, 12.2%
- O=C(CCCC(=O)N/N=C\c1ccccn1)N/N=C\c1ccccn1 — lower, 1.24%
- CCOc1ccc(N=C(NC#N)SCC)cc1 — lower, 1.85%
- CC1CCN(C(=O)CSc2nnc(CNc3ccc(F)cc3)n2Cc2ccco2)CC1 — lower, -13.3%
- CC(=O)NC12CC3CC(C1)CC(C(=O)OCC(=O)c1ccc4c(c1)OCCO4)(C3)C2 — higher, 9.85%
- COc1ccc(CN(C)S(=O)(=O)c2nnc(NC(=O)c3cccc(F)c3)s2)cc1 — higher, 13.4%
- CC(C)OC(=O)c1nn2c(C(F)(F)F)cc(-c3ccco3)nc2c1Cl — higher, 18.1%
- Cc1ccc(CS(=O)(=O)Cc2ccc(C(=O)NCCCN3CC(C)CC(C)C3)o2)cc1 (centres unmarked) — lower, -41.2%
- Cn1c(NNC(=O)C(c2ccccc2)c2ccccc2)cc(=O)n(C)c1=O — higher, 8.72%
- CC1CCC(C(C)C)C(OCC[N+](C)(C)C)C1 (centres unmarked) — higher, 8.65%
- CSc1ncccc1C(=O)OCC(=O)NCc1ccccc1 — lower, -4.9%
- COc1cc(C2NC(=O)CCC2[N+](=O)[O-])c(OC)cc1Br (centres unmarked) — higher, 13.6%
- CC(=O)N1CCN(Cc2nc(-c3cccc(Cl)c3)no2)CC1 — higher, 25.6%
- O=c1c(-c2ccc(F)cc2)[n+]([O-])c2ccccc2n1OCc1ccccn1 — higher, 9.71%
- Cc1nc(SCC(=O)NCC2CCCO2)[nH]c(=O)c1C (centres unmarked) — higher, 11.7%
- CCn1ccc(C(=O)Nc2cccc(Cl)c2)n1 — higher, 18.3%
- Cc1ccc(-c2oc3ncnc(N)c3c2-c2ccc(C)cc2)cc1 — lower, -3.25%
- CCCCN(C(=O)CCC(=O)OCC(=O)NCc1ccccc1)c1c(N)n(CCC)c(=O)[nH]c1=O — lower, 3.16%
- COc1cccc(NC(=O)C2CSC3(C)CCC(=O)N23)c1 (centres unmarked) — higher, 9.45%
- COc1cc(NC(=O)CCCNC(=O)Cn2cnc3sc4c(c3c2=O)CCCC4)cc(OC)c1OC — higher, 23.1%
- OCC[C@H]1C[C@H](O)[C@@H](O)[C@]2(CCCO2)O1 — higher, 18.8%
- CC1CCc2cc(F)ccc2N1C(=O)CSc1nnc2c3ccccc3n(C)c2n1 (centres unmarked) — higher, 36.1%
